Laboratory results from publication PMC7442787.
Results are given in words; binding and its absence hold for the method and conditions named. Binding seen in cells or lysates may run through a third protein. Some binding calls cover weakened binding; strength is not graded here. Where a sequence is shown, tags or fusion partners need not be part of it.

Chains of the proteins cited; added tags and fusions are not shown.
UniProt Q61602: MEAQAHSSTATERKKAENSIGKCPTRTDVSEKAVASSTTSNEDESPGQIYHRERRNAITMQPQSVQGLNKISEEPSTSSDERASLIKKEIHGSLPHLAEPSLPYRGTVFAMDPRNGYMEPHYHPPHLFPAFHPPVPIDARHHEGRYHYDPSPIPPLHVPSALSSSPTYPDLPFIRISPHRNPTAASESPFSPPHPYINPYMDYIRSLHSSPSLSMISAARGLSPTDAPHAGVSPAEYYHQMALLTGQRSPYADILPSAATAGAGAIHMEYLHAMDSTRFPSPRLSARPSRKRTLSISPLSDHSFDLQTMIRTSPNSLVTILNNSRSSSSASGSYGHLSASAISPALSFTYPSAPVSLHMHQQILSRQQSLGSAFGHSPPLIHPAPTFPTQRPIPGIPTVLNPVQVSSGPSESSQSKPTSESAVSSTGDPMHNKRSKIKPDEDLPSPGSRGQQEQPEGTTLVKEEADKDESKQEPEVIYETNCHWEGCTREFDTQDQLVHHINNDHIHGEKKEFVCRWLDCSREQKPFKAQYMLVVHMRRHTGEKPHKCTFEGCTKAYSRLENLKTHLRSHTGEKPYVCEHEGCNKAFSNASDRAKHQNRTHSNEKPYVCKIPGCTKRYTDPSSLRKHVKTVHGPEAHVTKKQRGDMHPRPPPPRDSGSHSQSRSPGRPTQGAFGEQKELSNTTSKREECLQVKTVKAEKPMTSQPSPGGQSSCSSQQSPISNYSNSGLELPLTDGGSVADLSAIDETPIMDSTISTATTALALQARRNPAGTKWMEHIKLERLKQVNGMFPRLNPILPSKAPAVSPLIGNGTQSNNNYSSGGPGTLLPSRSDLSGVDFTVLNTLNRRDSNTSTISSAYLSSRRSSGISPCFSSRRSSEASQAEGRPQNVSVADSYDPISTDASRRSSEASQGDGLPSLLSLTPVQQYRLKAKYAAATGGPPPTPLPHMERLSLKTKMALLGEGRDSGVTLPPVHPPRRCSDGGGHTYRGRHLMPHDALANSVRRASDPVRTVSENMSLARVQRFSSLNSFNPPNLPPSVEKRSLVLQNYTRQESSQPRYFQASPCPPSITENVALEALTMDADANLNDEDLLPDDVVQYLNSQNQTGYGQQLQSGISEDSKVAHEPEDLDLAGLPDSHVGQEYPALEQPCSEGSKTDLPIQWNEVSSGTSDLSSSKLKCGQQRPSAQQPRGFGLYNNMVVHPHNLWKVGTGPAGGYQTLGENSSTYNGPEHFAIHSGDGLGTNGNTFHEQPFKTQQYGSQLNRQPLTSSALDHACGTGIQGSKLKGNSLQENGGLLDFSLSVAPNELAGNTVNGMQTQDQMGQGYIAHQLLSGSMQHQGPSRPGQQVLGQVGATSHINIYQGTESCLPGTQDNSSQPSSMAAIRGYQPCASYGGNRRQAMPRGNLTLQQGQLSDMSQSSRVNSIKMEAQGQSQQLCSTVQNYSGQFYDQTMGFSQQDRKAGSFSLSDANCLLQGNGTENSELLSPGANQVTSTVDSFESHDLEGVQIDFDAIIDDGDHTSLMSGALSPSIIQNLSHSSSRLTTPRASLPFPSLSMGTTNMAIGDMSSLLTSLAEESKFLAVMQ

Assays:
[1] = target: T1, Suppressor of fused (Sufu), endogenous (mouse (endogenous in NIH3T3 and MEFs)) (UniProt Q9Z0P7); experiment: co-IP; endogenous Sufu immunoprecipitated with anti-Sufu from NIH3T3 cells treated with Shh-CM; Western blot with anti-Gli3 and anti-Sufu
T1 sequence: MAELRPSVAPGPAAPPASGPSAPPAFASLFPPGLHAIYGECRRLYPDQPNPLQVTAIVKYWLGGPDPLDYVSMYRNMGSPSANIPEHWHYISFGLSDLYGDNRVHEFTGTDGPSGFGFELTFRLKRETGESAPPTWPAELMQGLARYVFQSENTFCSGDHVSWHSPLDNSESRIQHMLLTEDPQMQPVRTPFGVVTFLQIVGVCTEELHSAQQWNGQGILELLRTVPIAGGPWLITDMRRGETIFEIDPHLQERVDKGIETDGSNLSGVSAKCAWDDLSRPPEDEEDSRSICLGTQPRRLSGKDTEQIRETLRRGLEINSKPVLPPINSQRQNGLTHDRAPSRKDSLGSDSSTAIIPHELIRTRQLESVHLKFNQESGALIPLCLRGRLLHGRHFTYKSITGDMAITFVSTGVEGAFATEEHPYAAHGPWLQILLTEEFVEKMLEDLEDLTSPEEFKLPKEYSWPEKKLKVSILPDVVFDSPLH

[2] = target: T2, Flag-Ppp4r2 (UniProt Q0VGB7); experiment: co-IP; lysates of HEK293 cells expressing Flag-Ppp4r2 and Sufu-Myc; Flag-Ppp4r2 immunoprecipitated, Sufu-Myc detected by Western blot; RIPA buffer, 4 °C overnight, magnetic beads
T2 sequence: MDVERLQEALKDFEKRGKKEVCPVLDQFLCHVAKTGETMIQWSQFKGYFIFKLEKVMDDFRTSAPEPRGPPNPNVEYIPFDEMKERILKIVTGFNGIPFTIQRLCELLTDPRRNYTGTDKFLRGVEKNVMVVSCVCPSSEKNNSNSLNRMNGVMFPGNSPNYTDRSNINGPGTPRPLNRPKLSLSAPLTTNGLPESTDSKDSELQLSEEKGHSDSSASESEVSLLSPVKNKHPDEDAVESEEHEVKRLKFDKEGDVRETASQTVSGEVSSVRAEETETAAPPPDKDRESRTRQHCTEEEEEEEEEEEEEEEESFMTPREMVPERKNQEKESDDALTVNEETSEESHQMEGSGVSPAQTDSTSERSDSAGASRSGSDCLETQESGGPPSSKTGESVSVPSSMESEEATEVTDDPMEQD

[3] = target: T1, Suppressor of fused (Sufu), endogenous (mouse (endogenous in NIH3T3 and MEFs)); experiment: co-IP; endogenous Sufu immunoprecipitated from WT-MEF lysates; endogenous Ppp4r2 detected by Western blot; RIPA buffer, 4 °C overnight, magnetic beads
[4] = target: T3, Flag-Sufu (UniProt Q9Z0P7); experiment: proximity ligation; MEFs transfected with Flag-Sufu, with or without ShhN-CM for 24 h; fixed, mouse anti-Flag and rabbit anti-Ppp4r2, Duolink in situ detection
T3 sequence: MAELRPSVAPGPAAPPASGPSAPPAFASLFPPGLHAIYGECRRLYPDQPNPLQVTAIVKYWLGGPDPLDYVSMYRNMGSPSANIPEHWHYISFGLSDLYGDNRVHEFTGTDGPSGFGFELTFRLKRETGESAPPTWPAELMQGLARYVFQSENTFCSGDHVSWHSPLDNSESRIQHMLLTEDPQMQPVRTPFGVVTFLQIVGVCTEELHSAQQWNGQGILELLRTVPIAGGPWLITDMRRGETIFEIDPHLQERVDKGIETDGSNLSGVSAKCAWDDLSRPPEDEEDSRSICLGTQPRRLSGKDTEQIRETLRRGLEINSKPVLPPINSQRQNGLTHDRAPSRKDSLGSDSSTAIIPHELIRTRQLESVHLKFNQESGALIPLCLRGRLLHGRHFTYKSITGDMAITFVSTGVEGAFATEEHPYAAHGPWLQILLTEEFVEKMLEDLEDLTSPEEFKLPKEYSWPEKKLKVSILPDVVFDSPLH

[5] = target: T2, Flag-Ppp4r2; experiment: co-IP; Sufu deletion fragments co-expressed with Ppp4r2 (Supplementary Fig. S1B, S1C); the text does not name the method, cells or which partner was precipitated

With “Gli3, endogenous (from UniProt Q61602 1-1583)” the binding [1] was “binds”.

B1: Sufu-Myc (protein, UniProt Q9Z0P7 1-484)
chain: MAELRPSVAPGPAAPPASGPSAPPAFASLFPPGLHAIYGECRRLYPDQPNPLQVTAIVKYWLGGPDPLDYVSMYRNMGSPSANIPEHWHYISFGLSDLYGDNRVHEFTGTDGPSGFGFELTFRLKRETGESAPPTWPAELMQGLARYVFQSENTFCSGDHVSWHSPLDNSESRIQHMLLTEDPQMQPVRTPFGVVTFLQIVGVCTEELHSAQQWNGQGILELLRTVPIAGGPWLITDMRRGETIFEIDPHLQERVDKGIETDGSNLSGVSAKCAWDDLSRPPEDEEDSRSICLGTQPRRLSGKDTEQIRETLRRGLEINSKPVLPPINSQRQNGLTHDRAPSRKDSLGSDSSTAIIPHELIRTRQLESVHLKFNQESGALIPLCLRGRLLHGRHFTYKSITGDMAITFVSTGVEGAFATEEHPYAAHGPWLQILLTEEFVEKMLEDLEDLTSPEEFKLPKEYSWPEKKLKVSILPDVVFDSPLH
B1 was tested, and the binding [2] was “binds”.

B2: Protein phosphatase 4 regulatory subunit 2 (Ppp4r2), endogenous (protein, UniProt Q0VGB7 1-417)
chain: MDVERLQEALKDFEKRGKKEVCPVLDQFLCHVAKTGETMIQWSQFKGYFIFKLEKVMDDFRTSAPEPRGPPNPNVEYIPFDEMKERILKIVTGFNGIPFTIQRLCELLTDPRRNYTGTDKFLRGVEKNVMVVSCVCPSSEKNNSNSLNRMNGVMFPGNSPNYTDRSNINGPGTPRPLNRPKLSLSAPLTTNGLPESTDSKDSELQLSEEKGHSDSSASESEVSLLSPVKNKHPDEDAVESEEHEVKRLKFDKEGDVRETASQTVSGEVSSVRAEETETAAPPPDKDRESRTRQHCTEEEEEEEEEEEEEEEESFMTPREMVPERKNQEKESDDALTVNEETSEESHQMEGSGVSPAQTDSTSERSDSAGASRSGSDCLETQESGGPPSSKTGESVSVPSSMESEEATEVTDDPMEQD
In the case of B2, the binding [3] is reported as “binds” and the binding [4] is reported as “binds”.

B3: Sufu N-terminal deletion fragment (1–267 a.a.) (domain or fragment, UniProt Q9Z0P7 1-267)
chain: MAELRPSVAPGPAAPPASGPSAPPAFASLFPPGLHAIYGECRRLYPDQPNPLQVTAIVKYWLGGPDPLDYVSMYRNMGSPSANIPEHWHYISFGLSDLYGDNRVHEFTGTDGPSGFGFELTFRLKRETGESAPPTWPAELMQGLARYVFQSENTFCSGDHVSWHSPLDNSESRIQHMLLTEDPQMQPVRTPFGVVTFLQIVGVCTEELHSAQQWNGQGILELLRTVPIAGGPWLITDMRRGETIFEIDPHLQERVDKGIETDGSNLS
For B3, the binding [5] was “binds”.

B4: Sufu C-terminal deletion fragment (331–483 a.a.) (domain or fragment, UniProt Q9Z0P7 331-483)
chain: RQNGLTHDRAPSRKDSLGSDSSTAIIPHELIRTRQLESVHLKFNQESGALIPLCLRGRLLHGRHFTYKSITGDMAITFVSTGVEGAFATEEHPYAAHGPWLQILLTEEFVEKMLEDLEDLTSPEEFKLPKEYSWPEKKLKVSILPDVVFDSPL
With B4 the binding [5] was “binds”.

B5: Sufu middle region deletion fragment (250–350 a.a.) (domain or fragment, UniProt Q9Z0P7 250-350)
chain: HLQERVDKGIETDGSNLSGVSAKCAWDDLSRPPEDEEDSRSICLGTQPRRLSGKDTEQIRETLRRGLEINSKPVLPPINSQRQNGLTHDRAPSRKDSLGSD
B5 was tested, and the binding [5] was “no binding”.
